The source of these data is paper PMC12922740 (Science Advances, 2026).

The target in the assay is C3b (human, UniProt P01024 23-667; P01024 part only). The experiment in a line: cryo-EM structure.
Sequence of UniProt P01024 (P01024 23-667, chain 1 of 2): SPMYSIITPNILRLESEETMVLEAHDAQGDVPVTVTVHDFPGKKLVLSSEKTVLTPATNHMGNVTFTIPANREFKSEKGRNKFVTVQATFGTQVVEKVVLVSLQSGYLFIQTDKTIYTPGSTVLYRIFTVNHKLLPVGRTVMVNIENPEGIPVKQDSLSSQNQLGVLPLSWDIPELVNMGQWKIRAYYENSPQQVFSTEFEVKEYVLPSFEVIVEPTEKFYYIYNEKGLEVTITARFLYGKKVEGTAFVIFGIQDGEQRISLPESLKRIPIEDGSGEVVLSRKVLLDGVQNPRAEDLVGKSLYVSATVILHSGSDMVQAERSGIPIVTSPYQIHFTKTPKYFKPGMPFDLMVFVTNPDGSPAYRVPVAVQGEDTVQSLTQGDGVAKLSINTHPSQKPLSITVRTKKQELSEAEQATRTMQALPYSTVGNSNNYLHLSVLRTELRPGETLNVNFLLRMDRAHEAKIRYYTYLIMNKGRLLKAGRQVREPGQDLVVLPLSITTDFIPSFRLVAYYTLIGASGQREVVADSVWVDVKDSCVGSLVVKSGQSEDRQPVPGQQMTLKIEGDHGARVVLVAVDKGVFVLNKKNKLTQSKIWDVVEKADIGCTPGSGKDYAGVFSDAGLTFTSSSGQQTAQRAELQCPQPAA
Sequence of UniProt P01024 (P01024 749-1663, chain 2 of 2): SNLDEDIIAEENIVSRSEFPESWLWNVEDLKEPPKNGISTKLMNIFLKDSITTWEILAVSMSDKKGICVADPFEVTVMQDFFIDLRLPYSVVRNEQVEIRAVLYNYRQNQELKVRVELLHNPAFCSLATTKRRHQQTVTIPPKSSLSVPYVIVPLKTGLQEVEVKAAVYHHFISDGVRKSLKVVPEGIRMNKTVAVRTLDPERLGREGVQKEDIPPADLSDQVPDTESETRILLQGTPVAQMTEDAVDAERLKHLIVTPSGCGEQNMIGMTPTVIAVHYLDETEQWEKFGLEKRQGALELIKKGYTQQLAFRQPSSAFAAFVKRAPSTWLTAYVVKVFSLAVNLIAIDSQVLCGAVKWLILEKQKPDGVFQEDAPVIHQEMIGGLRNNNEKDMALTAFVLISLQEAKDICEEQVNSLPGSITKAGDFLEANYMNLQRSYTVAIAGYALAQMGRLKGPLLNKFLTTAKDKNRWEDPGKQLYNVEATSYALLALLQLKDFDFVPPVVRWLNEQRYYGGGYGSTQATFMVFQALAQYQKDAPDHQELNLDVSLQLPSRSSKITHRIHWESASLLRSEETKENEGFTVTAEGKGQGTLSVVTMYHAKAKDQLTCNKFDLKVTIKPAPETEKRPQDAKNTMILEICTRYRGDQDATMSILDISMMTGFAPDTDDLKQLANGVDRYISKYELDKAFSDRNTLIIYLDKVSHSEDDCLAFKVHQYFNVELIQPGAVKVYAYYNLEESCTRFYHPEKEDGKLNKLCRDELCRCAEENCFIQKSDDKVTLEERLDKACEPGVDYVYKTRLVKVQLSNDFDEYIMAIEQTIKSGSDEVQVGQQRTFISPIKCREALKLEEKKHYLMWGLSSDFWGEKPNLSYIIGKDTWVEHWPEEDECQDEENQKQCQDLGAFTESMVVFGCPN

B1: Bb (from FB(S699A)) (domain or fragment)
chain: KIVLDPSGSMNIYLVLDGSDSIGASNFTGAKKCLVNLIEKVASYGVKPRYGLVTYATYPKIWVKVSEADSSNADWVTKQLNEINYEDHKLKSGTNTKKALQAVYSMMSWPDDVPPEGWNRTRHVIILMTDGLHNMGGDPITVIDEIRDLLYIGKDRKNPREDYLDVYVFGVGPLVNQVNINALASKKDNEQHVFKVKDMENLEDVFYQMIDESQSLSLCGMVWEHRKGTDYHKQPWQAKISVIRPSKGHESCMGAVVSEYFVLTAAHCFTVDDKEHSIKVSVGGEKRDLEIEVVLFHPNYNINGKKEAGIPEFYDYDVALIKLKNKLKYGQTIRPICLPCTEGTTRALRLPPTTTCQQQKEELLPAQDIKALFVSEEEKKLTRKEVYIKNGDKKGSCERDAQYAPGYDKVKDISEVVTPRFLCTGGVSPYADPNTCRGDAGGPLIVHKRSRFIQVGVISWGVVDVCKNQKRQKQVPAHARDFHINLFQVLPWLKEKLQDEDLGFL
B1: the binding result is on record as “binds”.
